Measured values as given in paper PMC9462479.
Numbering of substitutions follows the chain as printed. These are yes or no findings as the source states them, for the method shown. Binding seen in cells or lysates may run through a third protein. Some entries that bind do so weakly or less than the wild type. Sequences can lack the tags named with a protein.

Assays:
Test in all cases: co-IP; Myc IP: HEK293T cells transfected, lysed in TNE buffer (150 mM NaCl, 1% NP40), anti-myc antibody and Protein G Sepharose, blotted with anti-FLAG
[1] = target: T1, myc-tagged human ARMC5 (pcDNA3.1-myc-hARMC5), wild type (human) (UniProt Q96C12)
T1 sequence: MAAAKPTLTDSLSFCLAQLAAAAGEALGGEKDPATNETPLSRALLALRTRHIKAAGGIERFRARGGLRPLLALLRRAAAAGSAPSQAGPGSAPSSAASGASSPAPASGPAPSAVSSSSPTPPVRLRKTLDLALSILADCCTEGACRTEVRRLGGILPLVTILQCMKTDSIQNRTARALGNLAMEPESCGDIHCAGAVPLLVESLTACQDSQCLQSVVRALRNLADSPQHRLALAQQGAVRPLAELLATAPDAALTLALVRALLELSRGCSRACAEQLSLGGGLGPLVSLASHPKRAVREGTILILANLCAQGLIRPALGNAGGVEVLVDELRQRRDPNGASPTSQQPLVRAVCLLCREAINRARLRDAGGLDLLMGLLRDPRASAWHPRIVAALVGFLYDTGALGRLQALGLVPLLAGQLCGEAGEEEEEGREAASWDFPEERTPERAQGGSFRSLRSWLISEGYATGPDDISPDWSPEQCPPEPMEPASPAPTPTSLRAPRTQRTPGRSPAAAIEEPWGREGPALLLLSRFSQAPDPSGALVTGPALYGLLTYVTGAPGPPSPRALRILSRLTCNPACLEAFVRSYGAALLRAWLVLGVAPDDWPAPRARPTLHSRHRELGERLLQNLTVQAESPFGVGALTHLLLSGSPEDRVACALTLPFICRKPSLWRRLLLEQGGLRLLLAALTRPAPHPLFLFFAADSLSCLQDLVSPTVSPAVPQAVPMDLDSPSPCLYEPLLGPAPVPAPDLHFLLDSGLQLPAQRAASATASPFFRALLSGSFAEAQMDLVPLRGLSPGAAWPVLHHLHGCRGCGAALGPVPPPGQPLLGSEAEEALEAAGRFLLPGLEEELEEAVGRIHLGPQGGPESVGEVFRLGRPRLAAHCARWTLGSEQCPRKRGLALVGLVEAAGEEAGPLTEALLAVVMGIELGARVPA

[2] = target: T2, myc-tagged human ARMC5(L754P) (human) (UniProt Q96C12)
T2 sequence: T1 sequence with L754P

[3] = target: T3, myc-tagged mouse ARMC5 (pcDNA3.1-myc-mArmc5) (mouse) (UniProt Q5EBP3)
T3 sequence: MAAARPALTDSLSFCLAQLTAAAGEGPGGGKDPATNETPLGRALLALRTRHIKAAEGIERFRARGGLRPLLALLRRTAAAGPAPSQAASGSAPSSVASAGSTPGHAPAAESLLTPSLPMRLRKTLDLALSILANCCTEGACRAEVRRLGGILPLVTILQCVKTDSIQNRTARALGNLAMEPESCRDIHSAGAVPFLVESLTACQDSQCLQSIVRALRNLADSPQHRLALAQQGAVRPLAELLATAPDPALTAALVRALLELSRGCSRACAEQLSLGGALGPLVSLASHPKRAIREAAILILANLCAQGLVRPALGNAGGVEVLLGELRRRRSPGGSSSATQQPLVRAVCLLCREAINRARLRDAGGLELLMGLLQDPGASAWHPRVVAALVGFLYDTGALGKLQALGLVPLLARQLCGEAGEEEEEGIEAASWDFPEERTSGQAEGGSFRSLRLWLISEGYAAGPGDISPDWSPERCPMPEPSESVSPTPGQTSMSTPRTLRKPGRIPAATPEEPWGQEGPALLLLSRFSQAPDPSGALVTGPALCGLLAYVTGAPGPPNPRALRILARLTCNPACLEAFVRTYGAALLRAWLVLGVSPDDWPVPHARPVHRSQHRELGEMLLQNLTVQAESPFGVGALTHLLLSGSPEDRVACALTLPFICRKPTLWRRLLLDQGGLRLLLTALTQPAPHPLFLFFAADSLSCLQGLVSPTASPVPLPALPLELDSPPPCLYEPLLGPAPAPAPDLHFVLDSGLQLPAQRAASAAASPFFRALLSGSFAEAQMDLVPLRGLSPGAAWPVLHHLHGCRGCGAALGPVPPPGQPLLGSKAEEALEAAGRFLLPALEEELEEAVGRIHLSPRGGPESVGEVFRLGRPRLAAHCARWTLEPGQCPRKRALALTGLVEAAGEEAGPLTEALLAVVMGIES

binding [1]: binds
binding [2]: binds
binding [3]: binds
B1: FLAG-SREBF1(N), N-terminus of mouse SREBF1, from pcDNA3.1-FLAG-Srebf1(N) in HEK293T (domain or fragment, UniProt Q9WTN3 2-453)
chain: DELAFGEAALEQTLAEMCELDTAVLNDIEDMLQLINNQDSDFPGLFDAPYAGGETGDTGPSSPGANSPESFSSASLASSLEAFLGGPKVTPAPLSPPPSAPAALKMYPSVSPFSPGPGIKEEPVPLTILQPAAPQPSPGTLLPPSFPAPPVQLSPAPVLGYSSLPSGFSGTLPGNTQQPPSSLPLAPAPGVLPTPALHTQVQSLASQQPLPASAAPRTNTVTSQVQQVPVVLQPHFIKADSLLLTAVKTDAGATVKTAGISTLAPGTAVQAGPLQTLVSGGTILATVPLVVDTDKLPIHRLAAGSKALGSAQSRGEKRTAHNAIEKRYRSSINDKIVELKDLVVGTEAKLNKSAVLRKAIDYIRFLQHSNQKLKQENLTLRSAHKSKSLKDLVSACGSGGGTDVSMEGMKPEVVETLTPPPSDAGSPSQSSPLSFGSRASSSGGSDSEPDSP
